T1: recombinant mouse FGF-8b (mouse, UniProt P37237-2 23-215)
T1 sequence (looked up): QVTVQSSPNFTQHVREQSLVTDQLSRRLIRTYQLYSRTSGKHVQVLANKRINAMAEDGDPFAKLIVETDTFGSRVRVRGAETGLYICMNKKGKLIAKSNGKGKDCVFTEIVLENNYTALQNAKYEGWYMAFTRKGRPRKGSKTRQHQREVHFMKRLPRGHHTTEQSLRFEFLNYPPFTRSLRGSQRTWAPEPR

T2: FGF-4 (human, UniProt P08620 54-206, limits assumed)
T2 construct: Bought protein
T2 sequence (looked up): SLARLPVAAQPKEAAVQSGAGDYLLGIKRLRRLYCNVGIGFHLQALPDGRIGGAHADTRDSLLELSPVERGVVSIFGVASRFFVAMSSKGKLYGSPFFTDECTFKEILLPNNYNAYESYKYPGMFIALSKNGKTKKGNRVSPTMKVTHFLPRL

T3: FGF-5 (human, UniProt P12034 23-268, limits assumed)
T3 construct: Bought protein
T3 sequence (looked up): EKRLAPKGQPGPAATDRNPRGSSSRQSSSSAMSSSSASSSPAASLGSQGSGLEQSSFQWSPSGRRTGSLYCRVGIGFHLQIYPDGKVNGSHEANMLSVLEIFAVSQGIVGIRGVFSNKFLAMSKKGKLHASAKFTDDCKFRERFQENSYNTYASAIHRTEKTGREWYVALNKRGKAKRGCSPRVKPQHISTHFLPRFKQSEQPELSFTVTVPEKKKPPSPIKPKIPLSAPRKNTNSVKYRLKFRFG

T4: FGF-7 (human, UniProt P21781 32-194)
T4 construct: Bought protein
T4 sequence (looked up): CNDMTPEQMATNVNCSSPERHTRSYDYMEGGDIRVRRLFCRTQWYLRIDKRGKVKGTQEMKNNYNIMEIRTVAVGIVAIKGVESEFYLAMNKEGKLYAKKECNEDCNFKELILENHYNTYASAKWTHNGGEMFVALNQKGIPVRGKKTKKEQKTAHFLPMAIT

T5: FGF-18 (recombinant mouse) (mouse, UniProt O89101 28-207, limits assumed)
T5 construct: Bought protein
T5 sequence (looked up): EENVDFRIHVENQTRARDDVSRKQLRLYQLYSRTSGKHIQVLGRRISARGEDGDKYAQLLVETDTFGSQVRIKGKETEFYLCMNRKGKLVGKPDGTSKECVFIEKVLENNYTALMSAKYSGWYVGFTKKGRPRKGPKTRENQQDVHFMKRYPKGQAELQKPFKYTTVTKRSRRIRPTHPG


Legend:
recombinant human FGF-1 [1] = target: T6, recombinant human FGF-1 (human, UniProt P05230); assay: SPR Biacore; fusion on Protein-A chip, FGF analyte, heparin
T6 construct: Bought protein
Description: (§1) The specificity of FGF ligand binding to FGFR1-IIIc-Fc, R1Mut4, FGFR3-IIIc-Fc, and FGFR4-Fc was assessed using Biacore®T100 surface plasmon resonance (SPR) technology (Biacore; Piscataway, N.J.). FGFR1-IIIc-Fc, R1Mut4, and FGFR4-Fc fusion proteins were produced from CHO—S host cells as described in Examples 2, 4, and 5. […] Protein-A was covalently linked to a CM5 chip, according to manufacturer's instructions and then a FGFR fusion protein was bound to the chip by the interaction of the Fc domain with the Protein-A. The FGF ligands were placed in contact with the FGFR fusion protein, also according to manufacturer's instructions, in the presence of HBS-P buffer (Biacore; Piscataway, N.J.) supplemented with 50 ug/ml heparin (Sigma; St. Louis, Mo.).
(§2) The binding of FGFR1-IIIc-Fc, R1Mut4, FGFR3-IIIc-Fc, and FGFR4-Fc to various FGF ligands was measured in real time.

recombinant human FGF-2 [2] = target: T7, recombinant human FGF-2 (human, UniProt P09038 part only); assay: as above
T7 construct: Bought protein
Description: as §1, §2

recombinant mouse FGF-8b [3] = target: T1, recombinant mouse FGF-8b; assay: competition ELISA, fusion pre-incubated with 200 ng/ml FGF-8b, plate FGFR4-Fc
Description: Briefly, HI BIND half-wells were coated with FGFR4-Fc of CHO—S-origin at a concentration of 5 ug/ml in PBS in a volume of 25 ul per well for 1 hr at room temperature. The wells were blocked by adding 150 ul BLOTTO per well and incubating for 2 hr at room temperature. The coated half-well plates were then washed six times with PBS and 0.05% Tween-20 to remove unbound FGFR1-IIIc-Fc and BLOTTO.
Similar competition ELISA experiments were conducted comparing the ability of the FGFR4-Fc fusion protein and the FGFR4-Fc deletion variants, produced in CHO—S host cells, to inhibit the binding of recombinant human FGF-2 (used at 200 ng/ml) and recombinant mouse FGF-8b (used at 200 ng/ml) (all from R&D Systems; Minneapolis, Minn.) to FGFR4-Fc derived from CHO—S cells and immobilized on an assay plate.

recombinant mouse FGF-8b [4] = target: T1, recombinant mouse FGF-8b; assay: competition ELISA (FIG. 12), 293-6E-made fusion
FGF-4 = target: T2, FGF-4; assay: SPR Biacore; fusion on Protein-A chip, FGF analyte, heparin
Description: as §1, §2

FGF-5 = target: T3, FGF-5; assay: as above
Description: as §1, §2

FGF-7 = target: T4, FGF-7; assay: as above
Description: as §1, §2

FGF-9 = FGF-9 (human, UniProt P31371); assay: as above
Description: as §1, §2

FGF-19 = target: T8, FGF-19 (human, UniProt O95750); assay: as above
FGF-19, sequence (O95750 25-216 limits assumed): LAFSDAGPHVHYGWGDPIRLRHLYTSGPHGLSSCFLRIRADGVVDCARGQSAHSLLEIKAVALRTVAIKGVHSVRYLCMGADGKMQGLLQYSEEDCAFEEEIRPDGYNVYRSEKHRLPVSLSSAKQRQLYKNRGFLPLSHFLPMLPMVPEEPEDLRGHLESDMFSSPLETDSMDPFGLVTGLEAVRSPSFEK
T8 construct: Bought protein
Description: as §1, §2

FGF-20 = target: T9, FGF-20 (human, UniProt Q9NP95 1-211, limits assumed); assay: as above
FGF-20, sequence (Q9NP95 whole entry, the tested form may be a part): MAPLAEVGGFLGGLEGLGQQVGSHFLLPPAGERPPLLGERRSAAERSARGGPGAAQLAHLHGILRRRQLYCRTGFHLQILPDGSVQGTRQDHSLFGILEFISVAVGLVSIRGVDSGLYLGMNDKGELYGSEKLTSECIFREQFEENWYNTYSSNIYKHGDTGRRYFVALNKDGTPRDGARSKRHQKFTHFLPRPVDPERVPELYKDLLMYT
T9 construct: Bought protein
Description: as §1, §2

recombinant human FGF-1 [5] = target: T6, recombinant human FGF-1; assay: SPR Biacore; fusion on Protein-A chip, FGF analyte, heparin; average of two
T6 sequence (P05230 16-155 limits assumed): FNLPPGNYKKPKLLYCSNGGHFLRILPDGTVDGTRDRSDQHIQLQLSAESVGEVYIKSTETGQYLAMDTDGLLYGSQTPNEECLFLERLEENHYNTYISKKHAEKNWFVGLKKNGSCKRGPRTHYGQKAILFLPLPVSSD
Description: as §1, §2

[6] = target: T5, FGF-18 (recombinant mouse); assay: as above
Description: as §1, §2

recombinant human FGF-2 [7] = target: T7, recombinant human FGF-2; assay: cell-based or functional assay
T7 sequence (P09038 143-288 limits assumed): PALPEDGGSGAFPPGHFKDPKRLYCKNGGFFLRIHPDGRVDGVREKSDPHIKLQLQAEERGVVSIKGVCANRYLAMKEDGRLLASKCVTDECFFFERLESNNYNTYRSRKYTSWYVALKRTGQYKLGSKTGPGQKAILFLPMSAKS

recombinant mouse FGF-8b [8] = target: T1, recombinant mouse FGF-8b; assay: competition ELISA (FIG. 9), DG44-made fusion, plate FGFR1-IIIc-Fc
Description: Similar competition ELISA experiments were conducted comparing the ability of the FGFR1-IIIc-Fc fusion protein and R1Mut4 fusion protein, both produced in DG44 host cells, to inhibit the binding of recombinant human FGF-1 (at a concentration of 60 ng/ml), recombinant human FGF-2 (a concentration of at 200 ng/ml), and recombinant mouse FGF-8b (a concentration of at 200 ng/ml) (all from R&D Systems; Minneapolis, Minn.) to FGFR1-IIIc-Fc derived from 293 cells and immobilized on an assay plate.

recombinant human FGF-2 [9] = target: T7, recombinant human FGF-2; assay: competition ELISA, 293-6E-made fusion pre-incubated with 200 ng/ml FGF-2, plate FGFR1-IIIc-Fc
Description: The wells were blocked by adding 150 ul BLOTTO per well and incubating for 2 hr at room temperature. The coated half-well plates were then washed six times with PBS and 0.05% Tween-20 to remove unbound FGFR1-IIIc-Fc and BLOTTO.
About 40 ul of the above fusion proteins pre-incubated with FGF-2 were then added to the washed half-well plates coated with FGFR1-IIIc-Fc and incubated for 30 min at 37° C. with shaking. After incubation, the plates were washed as before six times with PBS and 0.05% Tween-20 to remove any unbound FGF-2. After washing, about 2 ug/ml of anti-human FGF-2 polyclonal biotinylated antibody (from R&D Systems) in 1x BLOTTO was added to each well of the plate, which was then incubated for 30 min at 37° C. with shaking, followed by washing as before to remove any unbound anti-FGF-2 antibody. The bound anti-FGF-2 antibody was detected using a streptavidin-HRP linker provided in the ABC kit (Vector Laboratories, Burlingame, Calif.) according to the manufacturer's protocol. After washing as before, reconstituted OPD solution (Sigma; St. Louis, Mo.) was added. The detection reaction was developed for 10 to 20 min at room temperature followed by a reading of absorbance at 450 nm.

Row | Binder | Kd (recombinant human FGF-2 [2]) [nM] | kon (recombinant human FGF-2 [2]) [M⁻¹ s⁻¹] | Kd (FGF-4) [nM] | kon (FGF-4) [M⁻¹ s⁻¹] | Kd (FGF-5) [nM] | Kd (FGF-9) [nM] | kon (FGF-9) [M⁻¹ s⁻¹] | Kd (FGF-19) [nM] | Kd (FGF-20) [nM] | kon (FGF-20) [M⁻¹ s⁻¹] | Kd (recombinant human FGF-1 [5]) [nM] | kon (recombinant human FGF-1 [5]) [M⁻¹ s⁻¹] | Kd [6] [nM] | kon [6] [M⁻¹ s⁻¹] | inhibition of FGF-2 activated Erk phosphorylation (phospho-Erk ELISA), EC50, 293-6E protein (recombinant human FGF-2 [7]) [mg/L] | kon (FGF-5) [M⁻¹ s⁻¹] | binding result (recombinant mouse FGF-8b [8]) | other results
1 | FGFR4-Fc fusion protein (Fc fusion, also called parental FGFR4-Fc; HG1020185) not shown | 16.2 | 41600 | – | – | – | – | – | – | – | – | – | – | – | – | – | – | – | Kd (recombinant human FGF-1 [1]): 3.45 nM; kon (recombinant human FGF-1 [1]): 168000 M⁻¹ s⁻¹; EC50 (recombinant mouse FGF-8b [3]): ~0.631 mg/L
2 | FGFR3-IIIc-Fc fusion protein (Fc fusion, also called HG1021603) ESLGTEQRVVGRAAEVPGPEPGQQEQLVFGSGDAVELSCPPPGGGPMGPTVWVKDGTGLVPSERVLVGPQRLQVLNASHEDSGAYSCRQRLTQRVLCHFSVRVTDAPSSGDDEDGEDEAEDTGVDTGAPYWTRPERMDKKLLAVPAANTVRFRCPAAGNPTPSISWLKNGREFRGEHRIGGIKLRHQQWSLVMESVVPSDRGNYTCVVENKFGSIRQTYTLDVLERSPHRPILQAGLPANQTAVLGSDVEFHCKVYSDAQPHIQWLKHVEVNGSKVGPDGTPYVTVLKTAGANTTDKELEVLSLHNVTFEDAGEYTCLAGNSIGFSHHSAWLVVLPAEEELVEADEAGSVYAGGS[in this place human IgG1 Fc with changes] | – | – | 1.91 | 808000 | 9.7 | 0.537 | 776000 | 7870 | 2.17 | 185000 | 0.126 | 2.83e+06 | 0.035 | 5.16e+06 | – | – | – | binding result (recombinant mouse FGF-8b [4]): binds; Kd (FGF-7): 148 nM; kon (FGF-7): 319000 M⁻¹ s⁻¹

More lines, main results first:

Row | Kd (recombinant human FGF-2 [2]) [nM] | kon (recombinant human FGF-2 [2]) [M⁻¹ s⁻¹] | Kd (FGF-4) [nM] | kon (FGF-4) [M⁻¹ s⁻¹] | Kd (FGF-5) [nM] | Kd (FGF-9) [nM] | kon (FGF-9) [M⁻¹ s⁻¹] | Kd (FGF-19) [nM] | Kd (FGF-20) [nM] | kon (FGF-20) [M⁻¹ s⁻¹] | Kd (recombinant human FGF-1 [5]) [nM] | kon (recombinant human FGF-1 [5]) [M⁻¹ s⁻¹] | Kd [6] [nM] | kon [6] [M⁻¹ s⁻¹] | inhibition of FGF-2 activated Erk phosphorylation (phospho-Erk ELISA), EC50, 293-6E protein (recombinant human FGF-2 [7]) [mg/L] | kon (FGF-5) [M⁻¹ s⁻¹] | binding result (recombinant mouse FGF-8b [8]) | Binder | other results
3 | 0.617 | 375000 | 0.667 | 715000 | 4.58 | 1.12 | 474000 | 7870 | 1.57 | 162000 | – | – | 0.418 | 1.11e+06 | 0.18 | 171000 | binds | FGFR1-IIIc-Fc fusion protein (Fc fusion, also called parental FGFR1-IIIc-Fc; FGFR-IIIc-Fc) RPSPTLPEQAQPWGAPVEVESFLVHPGDLLQLRCRLRDDVQSINWLRDGVQLAESNRTRITGEEVEVQDSVPADSGLYACVTSSPSGSDTTYFSVNVSDALPSSEDDDDDDDSSSEEKETDNTKPNPVAPYWTSPEKMEKKLHAVPAAKTVKFKCPSSGTPNPTLRWLKNGKEFKPDHRIGGYKVRYATWSIIMDSVVPSDKGNYTCIVENEYGSINHTYQLDVVERSPHRPILQAGLPANKTVALGSNVEFMCKVYSDPQPHIQWLKHIEVNGSKIGPDNLPYVQILKTAGVNTTDKEMEVLHLRNVSFEDAGEYTCLAGNSIGLSHHSAWLTVLEALEERPAVMTSPLYLEGS[in this place human IgG1 Fc with changes] | inhibition of FGF-2 activated Erk phosphorylation (phospho-Erk ELISA, L6 cells transfected with FGFR1-IIIc), EC50, 293 cells-derived protein (recombinant human FGF-2 [7]): 0.23 mg/L; inhibition of FGF-2 activated Erk phosphorylation (phospho-Erk ELISA, L6 cells transfected with FGFR1-IIIc), EC50, CHO cells-derived protein (recombinant human FGF-2 [7]): 0.29 mg/L; kon (FGF-19): 56300 M⁻¹ s⁻¹; EC50 (recombinant human FGF-2 [9]): ~0.24 mg/L
4 | 0.438 | 412000 | 0.214 | 1.06e+06 | 2.95 | 0.919 | 566000 | – | 0.785 | 242000 | 0.0507 | 3.46e+06 | 0.275 | 1.06e+06 | 0.29 | 371000 | binds | R1Mut4 (Fc fusion, Truncated ECD ending LEAL before the Fc; also called R1Mut4 fusion protein; HG1020129) RPSPTLPEQAQPWGAPVEVESFLVHPGDLLQLRCRLRDDVQSINWLRDGVQLAESNRTRITGEEVEVQDSVPADSGLYACVTSSPSGSDTTYFSVNVSDALPSSEDDDDDDDSSSEEKETDNTKPNPVAPYWTSPEKMEKKLHAVPAAKTVKFKCPSSGTPNPTLRWLKNGKEFKPDHRIGGYKVRYATWSIIMDSVVPSDKGNYTCIVENEYGSINHTYQLDVVERSPHRPILQAGLPANKTVALGSNVEFMCKVYSDPQPHIQWLKHIEVNGSKIGPDNLPYVQILKTAGVNTTDKEMEVLHLRNVSFEDAGEYTCLAGNSIGLSHHSAWLTVLEAL[in this place human IgG1 Fc with changes] | –
